# Laboratory results as given in the supplement of paper PMC8728848.
# This is one part of the list.
# B1: GS7807H-bfa-490-18-490 (Bacteroides fragilis) (protein)
# chain: GNLEEMNIDPDNATQTHPKLLLTQICMNAFKRGTDGMYATKKVIQADGESADQYYKWTRGSFGYYDNLRNVQKMGEEAERVNAPVYTALTKFFRAYYFYELTLRFGDIPYSQALKGEKEEIYTPEYDAQEDVFAGILQELREADEILANDASVIDGDIIYNGNSTQWRKLINSFRLKVLMTLSNHTTVGNINIASEFKNIATNSPLMNSLADNGQLVYLDQQGNRYPQFNAQWSGYYMDDTFIQRMRERRDPRLFIFSAQTNKGKTEGKPIDDFSSYEGGDPAAPYSDAIIKVSEGTISPINDRFRTDPIVEPTMLMGYAELQQILAEAVVRGWISGNAQTYYEKGIRASFSFYETHAKDYAGYLNENAVAQYLKEPLVDFTQASGTEEQIERIIMQKYLVTFYQGNWDSFYEQLRTGYPDFRRPAGTEIPKRWMYPQGEYDNNGTNVETAITRQFGAGNDKINQATWWQKKS
# Key:
# Experiment in all cases: glycan array binding signal (z-score within array); higher = stronger binding
# Settings in all cases: glycan notation: IUPAC condensed, linker removed
# [1] = biological target: Neu5Ac(a2-6)Gal(b1-3)GlcNAc(b1-3)[Gal(b1-4)GlcNAc(b1-6)]Gal(b1-4)Glc
# In short: (§1)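 From the Consortium for Functional Glycomics database, 3228 arrays were curated, keeping only those whose protein sequence was available. Binding is given as a within-array Z-score averaged across arrays sharing a protein sequence and across linkers. Negative Z-scores can be read as non-binding.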
# Neu5Ac(a2-6)Gal(b1-4)Glc = biological target: Neu5Ac(a2-6)Gal(b1-4)Glc
# In short: as §1
# [2] = biological target: Neu5Ac(a2-6)Gal(b1-4)GlcNAc
# In short: as §1
# [3] = biological target: Neu5Ac(a2-6)Gal(b1-4)GlcNAc(b1-2)Man
# In short: as §1
# [4] = biological target: Neu5Ac(a2-6)Gal(b1-4)GlcNAc(b1-2)Man(a1-3)Man(b1-4)GlcNAc(b1-4)GlcNAc
# In short: as §1
# [5] = biological target: Neu5Ac(a2-6)Gal(b1-4)GlcNAc(b1-2)Man(a1-3)[Gal(b1-4)GlcNAc(b1-2)Man(a1-6)]Man(b1-4)GlcNAc(b1-4)GlcNAc
# In short: as §1
# [6] = biological target: Neu5Ac(a2-6)Gal(b1-4)GlcNAc(b1-2)Man(a1-3)[GlcNAc(b1-2)Man(a1-6)]Man(b1-4)GlcNAc(b1-4)GlcNAc
# In short: as §1
# [7] = biological target: Neu5Ac(a2-6)Gal(b1-4)GlcNAc(b1-2)Man(a1-3)[GlcNAc(b1-4)][Neu5Ac(a2-6)Gal(b1-4)GlcNAc(b1-2)Man(a1-6)]Man(b1-4)GlcNAc(b1-4)GlcNAc
# In short: as §1
# [8] = biological target: Neu5Ac(a2-6)Gal(b1-4)GlcNAc(b1-2)Man(a1-3)[Man(a1-6)]Man(b1-4)GlcNAc(b1-4)GlcNAc
# In short: as §1
# [9] = biological target: Neu5Ac(a2-6)Gal(b1-4)GlcNAc(b1-2)Man(a1-3)[Neu5Ac(a2-3)Gal(b1-4)GlcNAc(b1-2)Man(a1-6)]Man(b1-4)GlcNAc(b1-4)GlcNAc
# In short: as §1
# [10] = biological target: Neu5Ac(a2-6)Gal(b1-4)GlcNAc(b1-2)Man(a1-3)[Neu5Ac(a2-6)Gal(b1-4)GlcNAc(b1-2)Man(a1-6)]Man(b1-4)GlcNAc(b1-4)GlcNAc
# In short: as §1
# [11] = biological target: Neu5Ac(a2-6)Gal(b1-4)GlcNAc(b1-2)Man(a1-3)[Neu5Ac(a2-6)Gal(b1-4)GlcNAc(b1-2)Man(a1-6)]Man(b1-4)GlcNAc(b1-4)[Fuc(a1-6)]GlcNAc
# In short: as §1
# [12] = biological target: Neu5Ac(a2-6)Gal(b1-4)GlcNAc(b1-2)Man(a1-6)Man(b1-4)GlcNAc(b1-4)GlcNAc
# In short: as §1
# [13] = biological target: Neu5Ac(a2-6)Gal(b1-4)GlcNAc(b1-2)Man(a1-6)[Gal(b1-4)GlcNAc(b1-2)Man(a1-3)]Man(b1-4)GlcNAc(b1-4)GlcNAc
# In short: as §1
# [14] = biological target: Neu5Ac(a2-6)Gal(b1-4)GlcNAc(b1-2)Man(a1-6)[GlcNAc(b1-2)Man(a1-3)]Man(b1-4)GlcNAc(b1-4)GlcNAc
# In short: as §1
# [15] = biological target: Neu5Ac(a2-6)Gal(b1-4)GlcNAc(b1-2)Man(a1-6)[Man(a1-3)]Man(b1-4)GlcNAc(b1-4)GlcNAc
# In short: as §1
# [16] = biological target: Neu5Ac(a2-6)Gal(b1-4)GlcNAc(b1-2)[Neu5Ac(a2-6)Gal(b1-4)GlcNAc(b1-4)]Man(a1-3)[GlcNAc(b1-4)][Neu5Ac(a2-6)Gal(b1-4)GlcNAc(b1-2)[Neu5Ac(a2-6)Gal(b1-4)GlcNAc(b1-6)]Man(a1-6)]Man(b1-4)GlcNAc(b1-4)GlcNAc
# In short: as §1
# [17] = biological target: Neu5Ac(a2-6)Gal(b1-4)GlcNAc(b1-2)[Neu5Ac(a2-6)Gal(b1-4)GlcNAc(b1-4)]Man(a1-3)[GlcNAc(b1-4)][Neu5Ac(a2-6)Gal(b1-4)GlcNAc(b1-4)Man(a1-6)]Man(b1-4)GlcNAc(b1-4)GlcNAc
# In short: as §1
# [18] = biological target: Neu5Ac(a2-6)Gal(b1-4)GlcNAc(b1-2)[Neu5Ac(a2-6)Gal(b1-4)GlcNAc(b1-6)]Man(a1-6)[Neu5Ac(a2-6)Gal(b1-4)GlcNAc(b1-2)Man(a1-3)][GlcNAc(b1-4)]Man(b1-4)GlcNAc(b1-4)GlcNAc
# In short: as §1
# [19] = biological target: Neu5Ac(a2-6)Gal(b1-4)GlcNAc(b1-3)Gal(b1-3)GlcNAc
# In short: as §1
# [20] = biological target: Neu5Ac(a2-6)Gal(b1-4)GlcNAc(b1-3)Gal(b1-4)GlcNAc
# In short: as §1
# [21] = biological target: Neu5Ac(a2-6)Gal(b1-4)GlcNAc(b1-3)Gal(b1-4)GlcNAc(b1-2)Man(a1-3)[Neu5Ac(a2-6)Gal(b1-4)GlcNAc(b1-3)Gal(b1-4)GlcNAc(b1-2)Man(a1-6)]GalNAc
# In short: as §1
# [22] = biological target: Neu5Ac(a2-6)Gal(b1-4)GlcNAc(b1-3)Gal(b1-4)GlcNAc(b1-3)Gal(b1-4)GlcNAc
# In short: as §1
# [23] = biological target: Neu5Ac(a2-6)Gal(b1-4)GlcNAc(b1-3)Gal(b1-4)GlcNAc(b1-3)Gal(b1-4)GlcNAc(b1-2)Man(a1-3)[Neu5Ac(a2-6)Gal(b1-4)GlcNAc(b1-3)Gal(b1-4)GlcNAc(b1-3)Gal(b1-4)GlcNAc(b1-2)Man(a1-6)]GalNAc
# In short: as §1
# [24] = biological target: Neu5Ac(a2-6)Gal(b1-4)GlcNAc(b1-3)Gal(b1-4)GlcNAc(b1-3)GalNAc
# In short: as §1
# [25] = biological target: Neu5Ac(a2-6)Gal(b1-4)GlcNAc(b1-3)Gal(b1-4)GlcNAc(b1-3)[Neu5Ac(a2-6)Gal(b1-4)GlcNAc(b1-3)Gal(b1-4)GlcNAc(b1-6)]GalNAc
# In short: as §1
# [26] = biological target: Neu5Ac(a2-6)Gal(b1-4)GlcNAc(b1-3)Gal(b1-4)GlcNAc(b1-6)[Gal(b1-3)]GalNAc
# In short: as §1
# [27] = biological target: Neu5Ac(a2-6)Gal(b1-4)GlcNAc(b1-3)Gal(b1-4)[Fuc(a1-3)]GlcNAc(b1-3)Gal(b1-4)[Fuc(a1-3)]GlcNAc
# In short: as §1
# [28] = biological target: Neu5Ac(a2-6)Gal(b1-4)GlcNAc(b1-3)GalNAc
# In short: as §1
# [29] = biological target: Neu5Ac(a2-6)Gal(b1-4)GlcNAc(b1-3)[Neu5Ac(a2-6)Gal(b1-4)GlcNAc(b1-6)]GalNAc
# In short: as §1
# [30] = biological target: Neu5Ac(a2-6)Gal(b1-4)GlcNAc(b1-6)GalNAc
# In short: as §1
# [31] = biological target: Neu5Ac(a2-6)Gal(b1-4)GlcNAc(b1-6)[Gal(b1-3)GlcNAc(b1-3)]Gal(b1-4)Glc
# In short: as §1
# [32] = biological target: Neu5Ac(a2-6)Gal(b1-4)GlcNAc(b1-6)[Gal(b1-3)]GalNAc
# In short: as §1
# [33] = biological target: Neu5Ac(a2-6)Gal(b1-4)GlcNAc6S
# In short: as §1
# Neu5Ac(a2-6)GalNAc = biological target: Neu5Ac(a2-6)GalNAc
# In short: as §1
# [34] = biological target: Neu5Ac(a2-6)GalNAc(b1-4)GlcNAc
# In short: as §1
# [35] = biological target: Neu5Ac(a2-6)GalNAc(b1-4)GlcNAc6S
# In short: as §1
# [36] = biological target: Neu5Ac(a2-6)GlcNAc(b1-4)GlcNAc
# In short: as §1
binder,measurement,setting,value
B1,glycan array binding signal (z-score),[1],0.078
same,glycan array binding signal (z-score),Neu5Ac(a2-6)Gal(b1-4)Glc,-0.148
same,glycan array binding signal (z-score),[2],-0.748
same,glycan array binding signal (z-score),[3],-0.666
same,glycan array binding signal (z-score),[4],0.128
same,glycan array binding signal (z-score),[5],-0.232
same,glycan array binding signal (z-score),[6],-0.135
same,glycan array binding signal (z-score),[7],-0.169
same,glycan array binding signal (z-score),[8],-0.651
same,glycan array binding signal (z-score),[9],-0.703
same,glycan array binding signal (z-score),[10],-0.162
same,glycan array binding signal (z-score),[11],1.58
same,glycan array binding signal (z-score),[12],-0.25
same,glycan array binding signal (z-score),[13],-0.231
same,glycan array binding signal (z-score),[14],-0.141
same,glycan array binding signal (z-score),[15],-0.287
same,glycan array binding signal (z-score),[16],-0.261
same,glycan array binding signal (z-score),[17],-0.34
same,glycan array binding signal (z-score),[18],0.272
same,glycan array binding signal (z-score),[19],-0.917
same,glycan array binding signal (z-score),[20],-0.872
same,glycan array binding signal (z-score),[21],0.988
same,glycan array binding signal (z-score),[22],-0.063
same,glycan array binding signal (z-score),[23],0.811
same,glycan array binding signal (z-score),[24],0.934
same,glycan array binding signal (z-score),[25],-0.361
same,glycan array binding signal (z-score),[26],0.249
same,glycan array binding signal (z-score),[27],-0.32
same,glycan array binding signal (z-score),[28],-0.454
same,glycan array binding signal (z-score),[29],0.017
same,glycan array binding signal (z-score),[30],-0.455
same,glycan array binding signal (z-score),[31],-0.089
same,glycan array binding signal (z-score),[32],-0.008
same,glycan array binding signal (z-score),[33],-0.946
same,glycan array binding signal (z-score),Neu5Ac(a2-6)GalNAc,-0.716
same,glycan array binding signal (z-score),[34],-0.192
same,glycan array binding signal (z-score),[35],-0.329
same,glycan array binding signal (z-score),[36],-0.559
